# Experimental data: the supplement of paper PMC11417369
# Some of the results follow.
# Test system: PfHDP1 homeodomain (GST-tagged)
# Test: gcPBM binding intensity (ln(normalized median fluorescence intensity)); higher = stronger DNA binding
# Method in brief: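 An Agilent 4 × 180k array carrying primer-extended double-stranded 36-bp intergenic genomic probes and negative controls received GST-tagged P. falciparum DNA-binding domains expressed in E. coli, about 25 μg on average, for 1 h. The binding buffer contained 1× PBS, 1% milk, 0.2 mg/ml BSA, 0.5% salmon testes DNA and 0.03% Triton X-100. Binding intensity is the top Masliner-normalised natural-log median intensity across replicate spots of either probe orientation, read after Alexa488 anti-GST antibody staining and a 488 nm scan.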
row,Sequence,gcPBM binding intensity (ln)
1,CACAGACACGGACACACACACACACCCACATATATA [CACACA_site4355],6.97
2,AAAAAAAAAAAAAAAACACACATATATATATATATA [CACACA_site2436],9.3
3,TCTTAAAAAATAGGGACACGTAAATATAATATATAA [CACACA_negctrl_site554],6.47
4,TTATAATAATAGAACTTTATGTAGAAAAAAGGAAAA [XGTACX_negctrl_site116],6.22
5,ACACATACTAAAATGTTGTGAAATATGATAATGTGA [CACACA_negctrl_site851],6.52
6,ATGTGTTGGGAAAAGGCATGCACTTTTTTTTTTTTT [TGCATGCA_site707],6.79
7,TTTTCCTTATATTATGCATGCAGGGTTTGACATTAT [TGCATGCA_site826],7.26
8,TGATAACCTCACAAATGTACGTACGGGGCTAGCATT [XGTACX_site4157],6.72
9,AACAGCATTATTTCTTATTTTTTTTTTGATATATTT [GTGCAC_negctrl_site114],6.39
10,ATATCTATAATAAATACACACATTTATATAGATAAA [CACACA_site7518],6.38
11,AAACTTGACAGACACACACACACATATATAAAAAAA [CACACA_site757],6.98
12,GTTATATTATTCATACGTACCTATATTTCTATTAAC [XGTACX_site3447],7.17
13,TTTAAAACCTTACATACACACAAATATGTAAATATA [CACACA_site6464],6.34
14,CACGCATATATACATACATGCATATATACATCCATG [TGCATGCA_site667],6.56
15,AAAAAAAAAAAAAAAACACACATATAGGTATAAATA [CACACA_site7528],6.63
16,TTCATATAACCTTATAGTACATAATTAAAAATATAA [XGTACX_site6328],6.32
17,TATTATTCTATACATTGTACATATTTTATAGTATGT [XGTACX_site73],6.52
18,AAAAAAAAAAAATAGACACACATATTATATATATAT [CACACA_site1419],8.52
19,TATGTATTTATCCACTTACATTTTTACTTTTCCATT [CACACA_negctrl_site1141],6.4
20,ATTTATACATGCTAATGTACTTATTTCACCTATATC [XGTACX_site3120],6.3
21,TATGGTATATACAACACACACACATATGTATAAATA [CACACA_site6562],6.96
22,TATATATATAATATTACACACATATATTTATATTTT [CACACA_site3460],7.53
23,CAAGTATTAATTATGTGTACATATATATATATATAT [XGTACX_site5311],9.29

row,Sequence,gcPBM binding intensity (ln)
1,AAATATATATACACATATATATATATATATATATAT [CACACA_negctrl_site1742],9.5
2,CTTTCCTATTTGACACGTACGAAATTTTACATAAAA [XGTACX_site6689],6.94
3,AAAATAAAAAATATAACACACAATAAATATTTATAT [CACACA_site6986],6.7
4,TATGAAATATCGTGCACACACGAATAATATAAGAAT [CACACA_site4842],9.21
5,AAATGTGAAGTGAATACACACCTAATAAATATAACA [CACACA_site5727],6.59
6,TACTGATCTTTCTAGGTGCGCTGCTACCATTATCGT [GTGCAC_site9538],6.41
7,ATATATAGATAATCAAGTACATAACAAGATATAAGA [XGTACX_site2186],6.66
8,ACATGAAATGTTTAAAGTACATATATAAATTTTTTT [XGTACX_site4519],6.12
9,TATATTTAATTATTATGTACTTATAATTTTTGAAAG [XGTACX_site8548],6.73
10,ATCCGAGTGTGAAATACACACATGATAATGTGAATG [CACACA_site919],6.23
11,AATTATATTACAAACTGTACATATATAATTTGTCCA [XGTACX_site6009],6.15
12,TCTTAAGGAAAAGAGTGTACAGAAATTTTTATTAAC [XGTACX_site6139],6.33
13,TATAGGAATATATGGTGTACCTATAAATCTGACATA [XGTACX_site8111],6.31
14,TTAAATAAGTAATTATGTACATATAATATTCTTTAT [XGTACX_site5280],6.28
15,TAGAAAATATAAAAATGTACGTAAATAAAATGTGCA [XGTACX_site3459],7.08
16,AAAAATAAAAATTGCACACTAAAAAATTACGCACGA [CACACA_site3418],9.87
17,ATTTATATATTTATACGTACTTATATATTGTTACAT [XGTACX_site6254],6.81
18,TTAATATTGTATTTCACACATAATTTAATATACTCA [CACACA_site5678],6.3
19,TATAATGAGGATAATAGTACATATGAATACAAAAAA [XGTACX_site3665],6.91
20,GCCATAAAAATATATACACACATAAAAAAAAATTAT [CACACA_site1176],6.65
21,TACACAAGCAGACACACACACATATAGATTTATATA [CACACA_site6715],6.59
22,ACTGCGTTTTTACACGCGCACTGCAATGAACAATAT,6.97
23,AAGATAATCACAAAATGTACAGGAAATATGACAACC [XGTACX_site3607],7.02

row,Sequence,gcPBM binding intensity (ln)
1,TATGTAACAAAAAAAAGTACACATATATATAGTGTA [XGTACX_site7772],6.41
2,TTTTCTAAATTAATAATACACACTTGCTAAAATCAT [CACACA_site3207],6.65
3,AAGAAAAAGGAACGGAAAAACAAACAAGGGGCCCAA [TGCATGCA_negctrl_site4],6.16
4,AATGGTATAAACAATACACACATAATATATATATTG [CACACA_site4997],6.8
5,TATTAGAACATATATGCATGCAATAGATATTCCAAT [TGCATGCA_site297],6.5
6,TATGTATAATTTCATTGTACTTTTGATATTATCATA [XGTACX_site280],5.94
7,ATATCATTTTCTAGCACACACATTGTTATTACCTTG [CACACA_site902],7.13
8,AGTCTGAATAAAATTACACACATATACAGATATATA [CACACA_site5054],6.33
9,TTTTTTTAAATATACACACACATTTATACAGATATA [CACACA_site5811],6.76
10,TTTCTAAAAATAAGAACACACACATATAAGCATATA [CACACA_site8714],7.05
11,AAAGGAAAATGTGTAAAAAGAAATGCTAGGTATATA [GTGCAC_negctrl_site699],6.9
12,ATATATATATAATATAGTACGTATAATATATGAATC [XGTACX_site4385],8.24
13,TATAATGCTCTTCTTTGTACATATTATGATTATATT [XGTACX_site2332],9.39
14,AGTGGTGTTAAATGTTGTACGATTTTGTGTTATTCG [XGTACX_site178],6.75
15,TTTTTGTTATATAAAGTGCAGTGACAAGCAGTTTAA,6.84
16,ATATAAAAAAATAAAACACACACATATATATTATAT [CACACA_site8909],6.91
17,ATTTAAGCATTATTTTGTACGAAAATAAAAAAATGA [XGTACX_site6958],6.37
18,TAATAGTATATAAAAAGTACATAATAAGATATGAAA [XGTACX_site1000],6.39
19,AAAAAAAAAATTGAAAGTACAAATATGTATTATATA [XGTACX_site2455],6.34
20,TAAAATATGTCATGTGGTACATGAATAGCTTTTATT [XGTACX_site3809],6.03
21,ATTATGTGCCAATACACACACACATATATATATATA [CACACA_site468],9.38
22,AAAAAAAAAAAAAACACACAAATCATAAATAAATAT [CACACA_site6362],6.43
23,TTTAAATATTACATATGTACTTATAAATATATATAT [XGTACX_site1284],7.5

row,Sequence,gcPBM binding intensity (ln)
1,AAGGAATAGGCATATACACACAGGTACAGATATATA [CACACA_site4402],6.56
2,TCATATAAATACACGTGTACATATATATATTACAGT [XGTACX_site1954],6.82
3,AATATAAAAAATAGTTGTACTATATTTAAATATGAC [XGTACX_site2937],6.39
4,AGTTTGCATATGGAAGTGCATTACCTTGAACATCAT,8.84
5,AAAAAATATATATGCACACACAAAAAAACAAATTAA [CACACA_site1278],9.51
6,ACTACGTGGATTAGTTCAAGGGAACACGTCCTATAC [CACACA_negctrl_site1427],5.94
7,CAACAAAAGTTATTTACACACAAAAGGCAAGGAAAT [CACACA_site7013],6.98
8,ACTAAACGAATAAATTGTACAAAGAAATATATTCAT [XGTACX_site6766],6.44
9,ATATTTCATTTTTGTACACACAACGTTGGAGGGTTT [CACACA_site3043],6.98
10,TAAAAAATTACATATTGTACAGGCAAAATTACACAT [XGTACX_site1152],6.66
11,AAAGGAAATAAAAACGCACACAGAAATAATATCTAT [CACACA_site457],6.92
12,TTTTTATCTAATCTAATATTATATTATACATATAAT [XGTACX_negctrl_site275],6.32
13,TGTGTGTGCTTATTTTGTACATATTAGGTAAATATT [XGTACX_site6329],7.04
14,TTTATGGAATAATCACGTACACACAAGAAAAAAAAA [XGTACX_site985],6.56
15,AACTCATAAAATAATGGTACACAAAAAAAATAAATA [XGTACX_site7648],6.8
16,TTAGATTTATAAGTGTGTACGTAAAATACTTAATAA [XGTACX_site8246],6.28
17,TTAGGCAAGGCGGGGGGTACGTTTTTATATAATTAT [XGTACX_site8029],8.5
18,TTTTTTTTTTTCTTTTGTACGTATAAAATTATATAA [XGTACX_site2453],6.18
19,CAAGGAACCAGACACACACACATAAATGTATTTATA [CACACA_site6491],6.57
20,ATAAATGACAAATTAACACACATATATTATATATAT [CACACA_site3899],6.95
